Laboratory results: PubChem BioAssay AID686978 (National Center for Advancing Translational Sciences (NCATS), 2013)
About 64,000 (15%) of roughly 420,000 compounds were called active. Inconclusive results, whose numbers are uncertain, are shown with a selection of clear calls. Calls follow the shape of the dose curve; as a rule, active = well fitted inhibition curve with a large enough effect; inconclusive = small, poorly fitted or top-dose-only effect; inactive = flat fitted curve, though single readings scatter. No potency is given beside an inconclusive call; the fits are too rough.

test: qHTS for Inhibitors of human tyrosyl-DNA phosphodiesterase 1 (TDP1): qHTS in cells in absence of CPT; details: DT40 Tdp1-/- hTDP1 cells, no CPT, ATP luminescence, 48 h; activity change, negative = growth inhibition: at 46.2 µM (top of the series) unless noted; also: nearly all actives have a fitted effect of over 55% in size
Procedure, shortened: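 Growth of hTDP1-complemented DT40 Tdp1-knockout cells is measured by ATP luminescence after at least 48 hr compound exposure at 37 °C, with DMSO substituting for the 20 nM CPT used in the parallel screen.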
% is scaled to controls: 0 for no effect and ±100 for the full control effect; potency is read from the fitted curve at half-maximal effect; tags tell the direction and shape of the fitted curve.

**Q.** For `O=C(NC1CC(=O)N(c2ccc(F)cc2)C1)c1ccco1` (stereo not drawn), which “activity change, negative = growth inhibition” value is on record?
**A.** inactive: -21.9%

**Q.** Which Potency does the source give for `COc1cccc(-c2cnc(C(O)c3ccc(Cl)c(F)c3)[nH]2)c1` (stereo not drawn) here?
**A.** inconclusive [inhibitor, single point]

**Q.** For `Cc1nnc(SCC(=O)c2cc(C)n(C3CC3)c2C)s1`, which Potency is on record?
**A.** inconclusive [inhibitor, single point]

**Q.** With `C/C(=N\NC(=O)c1ccc(OC2CCCC2)cc1)c1ccc(O)cc1` as the compound, how does the Potency read?
**A.** inconclusive [inhibitor, single point]

**Q.** For `O=C(c1nc2nc(-c3cccs3)cc(C(F)(F)F)n2n1)N1CCN(Cc2ccccc2)CC1`, which activity change, negative = growth inhibition is on record?
**A.** inconclusive: -30.3% [inhibitor]

**Q.** With `O=C(C1CCCN(S(=O)(=O)c2cccc3nonc23)C1)N1CCC(Cc2ccccc2)CC1` (stereo not drawn) as the compound, how does the Potency read?
**A.** active: 18.4 µM

**Q.** Which Potency does the source give for `CN(C)c1ccccc1-c1cc(NC=O)c2ncc(-c3cccc(C(F)(F)F)c3)n2c1` here?
**A.** active: 23.1 µM

**Q.** Which Potency does the source give for `COc1ccc(S(=O)(=O)N2CCN(C(=O)CCOc3ccccc3)CC2)cc1OC` here?
**A.** inconclusive [inhibitor, single point]

**Q.** Which Potency does the source give for `O=S(=O)(c1ccc(Br)cc1)c1nc(-c2ccccc2)oc1N1CCOCC1` here?
**A.** inconclusive [inhibitor, single point]

**Q.** With `COc1ccc(NC(=S)NC2CCCCCC2)c(OC)c1` as the compound, how does the Potency read?
**A.** active: 23.1 µM

**Q.** With `Nc1cccc2c1C(=O)N(C(=O)/C=C/c1cccc(F)c1)C2=O` as the compound, how does the Potency read?
**A.** inconclusive [inhibitor, partial curve, poor fit]

**Q.** With `COc1ccc(/C=C/C(=O)NC2CCN(Cc3ccccc3)CC2)cc1OC` as the compound, how does the “activity change, negative = growth inhibition” value read?
**A.** inactive: -5.2%

**Q.** Which Potency does the source give for `O=C(c1cnc2ccc3ccccc3c2c1)c1cc(F)ccc1O` here?
**A.** inconclusive [inhibitor, full curve]

**Q.** Which “activity change, negative = growth inhibition” value does the source give for `COc1ccc(Nc2nc3ccc(OC)cc3s2)cc1` here?
**A.** inactive: -25.7%

**Q.** For `C/C(=N\Nc1nc2ccc(Cl)cc2o1)c1ccccc1`, which Potency is on record?
**A.** inconclusive [inhibitor, single point]

**Q.** Which Potency does the source give for `COc1cc(/C=N/NC(=O)CC2(C)OCCCO2)ccc1OCc1ccc(Cl)cc1Cl` here?
**A.** inconclusive [inhibitor, single point]

**Q.** With `CC(C)c1ccc(/C=C2\SC(N3CCOCC3)=NC2=O)cc1` as the compound, how does the Potency read?
**A.** inconclusive [inhibitor, partial curve]

**Q.** Which Potency does the source give for `CC(NC(=O)CC(c1ccccc1)c1cc(Cl)ccc1O)c1ccccc1` (stereo not drawn) here?
**A.** active: 20.6 µM

**Q.** For `CCOC(=O)n1c(=O)n(Cc2ccccc2C)c2ccccc21`, which Potency is on record?
**A.** inconclusive [inhibitor, single point]

**Q.** With `CCOC(=O)c1cnc2ccc(C(=O)OC)cc2c1NCCCN1CCOCC1` as the compound, how does the Potency read?
**A.** inconclusive [inhibitor, single point]

**Q.** Which Potency does the source give for `O=C(NC(=S)N(Cc1ccccc1)c1ccccn1)C1CCCCC1` here?
**A.** inconclusive [inhibitor, partial curve, poor fit]

**Q.** For `N#Cc1sc(NCc2cccc(Cl)c2)nc1Cl`, which Potency is on record?
**A.** inconclusive [inhibitor, single point]

**Q.** With `COC(=O)c1c(C)oc2ccc(N(C(=O)c3ccncc3)S(=O)(=O)c3ccc(OC)cc3)cc12` as the compound, how does the Potency read?
**A.** active: 0.517 µM

**Q.** Which “activity change, negative = growth inhibition” value does the source give for `CCn1c(SCC(=O)Nc2cc(C)on2)nnc1-c1ccccc1` here?
**A.** inactive: -18.1%

**Q.** With `O=C(c1ccco1)N1CCN(C(c2ccccc2)c2nnnn2Cc2cccs2)CC1` (stereo not drawn) as the compound, how does the Potency read?
**A.** inconclusive [inhibitor, partial curve]

**Q.** With `Cc1cc(N2CCCC2)nc2ccc(NC(=S)NCCCOC(C)C)cc12` as the compound, how does the Potency read?
**A.** inconclusive [inhibitor, partial curve]

**Q.** Which Potency does the source give for `c1ccc(-c2nc(N3CCNCC3)nc3ccccc23)cc1` here?
**A.** inconclusive [inhibitor, single point]

**Q.** For `Cc1ccc(C2(C)NC(=O)N(CC(=O)Nc3ccccc3N3CCCCC3)C2=O)cc1` (stereo not drawn), which Potency is on record?
**A.** inconclusive [inhibitor, single point]

**Q.** With `COc1cc2c(cc1OC)CN(Cc1cc(=O)oc3c(C)c(C)ccc13)CC2` as the compound, how does the Potency read?
**A.** active: 20.6 µM

**Q.** Which “activity change, negative = growth inhibition” value does the source give for `COCCCN1C(=O)C(=O)/C(=C(/O)c2ccc(S(=O)(=O)N3CCOCC3)cc2)C1c1ccc(Cl)cc1` (stereo not drawn) here?
**A.** inactive: 7.49%

**Q.** Which “activity change, negative = growth inhibition” value does the source give for `CCOC(=O)c1[nH]c(C)c(C(=O)NCCN2CCOCC2)c1C` here?
**A.** inactive: -3.56%

**Q.** With `COC(=O)NCC(c1cccnc1)N1CCN(c2ccccc2F)CC1` (stereo not drawn) as the compound, how does the “activity change, negative = growth inhibition” value read?
**A.** inactive: 7.26%

**Q.** With `O=C(COC(=O)CCc1ccc(S(=O)(=O)N2CCOCC2)cc1)NCc1ccccc1` as the compound, how does the “activity change, negative = growth inhibition” value read?
**A.** inactive: -7.5%

**Q.** With `Cc1nn2c(NCCOCCO)c3c(nc2c1-c1ccccc1)CCCC3` as the compound, how does the Potency read?
**A.** inconclusive [inhibitor, partial curve]

**Q.** For `CCOC(=O)c1ccccc1NC(=O)COC(=O)CSCC(=O)Nc1cc(C)on1`, which “activity change, negative = growth inhibition” value is on record?
**A.** inactive: -13.2%

**Q.** For `O=C(Nc1cccc(C(F)(F)F)c1)c1ccc2c(c1)nnn2C1CCCC1`, which Potency is on record?
**A.** active: 8.2 µM

**Q.** With `CC(C)n1c(O)c(N=NC(=O)CNC(=O)c2cccnc2)c2ccccc21` as the compound, how does the “activity change, negative = growth inhibition” value read?
**A.** inactive: -10.6%

**Q.** For `CC(=O)NNC(=S)NC(=O)c1ccccc1`, which Potency is on record?
**A.** inconclusive [inhibitor, single point]

**Q.** Which Potency does the source give for `OCCn1c(SC2CCCCC2)nc2ccccc21` here?
**A.** inconclusive [inhibitor, single point]

**Q.** With `COc1cc(Br)cc(CN2CCN(C=O)CC2)c1O` as the compound, how does the Potency read?
**A.** inconclusive [inhibitor, partial curve]

**Q.** Which Potency does the source give for `COc1ccc(-c2ccc(-c3noc(-c4ccccc4OC)n3)c(OC)n2)cc1` here?
**A.** inconclusive [inhibitor, partial curve]

**Q.** For `CCc1ccc2c(c1)NC(=O)C2(C)Cc1cccc(F)c1` (stereo not drawn), which Potency is on record?
**A.** inconclusive [inhibitor, single point]

**Q.** For `CC1(C(=O)NCCc2c[nH]c3ccccc23)C=CC2(CCCCC2)N1C(=O)c1ccccc1` (stereo not drawn), which Potency is on record?
**A.** inconclusive [inhibitor, single point]

**Q.** With `Cc1ccc(-n2cc(CNCCc3cscn3)c(-c3ccc(F)cc3)n2)cc1` as the compound, how does the Potency read?
**A.** active: 23.1 µM

**Q.** Which Potency does the source give for `COC(=O)c1cc(C(=O)c2c(C)cc3ccccn23)cc([N+](=O)[O-])c1` here?
**A.** active: 11.6 µM

**Q.** Which “activity change, negative = growth inhibition” value does the source give for `O=C(CCCn1c(=O)oc2ccccc21)NNC(=O)COc1ccc(F)cc1` here?
**A.** inactive: 1.37%

**Q.** For `CC(C)c1ccc(NC(=O)C2CCN(S(C)(=O)=O)CC2)cc1`, which Potency is on record?
**A.** inconclusive [inhibitor, partial curve]

**Q.** Which Potency does the source give for `O=C(Nc1cccc(NC(=O)C2CC3CCCC(C2)C3=O)n1)C1CC2CCCC(C1)C2=O` (stereo not drawn) here?
**A.** active: 18.4 µM

**Q.** For `CCc1cc2ccc(C)cc2nc1SCC(=O)N1CCN(C(=O)c2ccco2)CC1`, which Potency is on record?
**A.** active: 18.4 µM

**Q.** With `Cc1c[n+]([O-])ccc1[N+](=O)[O-]` as the compound, how does the Potency read?
**A.** inconclusive [inhibitor, single point]

**Q.** For `COc1ccc([C@H]2CC(=O)C=C(c3ccc(F)cc3OCc3ccccc3)C2)cc1OC`, which Potency is on record?
**A.** active: 20.6 µM

**Q.** For `Cc1cc(F)ccc1S(=O)(=O)Nc1ncnc2sc3c(c12)CCC3`, which Potency is on record?
**A.** inconclusive [inhibitor, single point]

**Q.** For `CC(C)n1nc(C(=O)Nc2nnc(C3CC3)s2)c2ccccc2c1=O`, which Potency is on record?
**A.** inconclusive [inhibitor, partial curve, poor fit]

**Q.** With `COc1ccc(C)cc1NC(C)C(=O)NC(=O)NC1CCCCC1` (stereo not drawn) as the compound, how does the Potency read?
**A.** inconclusive [inhibitor, single point]

**Q.** With `O=C(/C=C\c1ccc2c(c1)OCO2)Nc1c2c(nn1-c1ccc(Cl)cc1)CSC2` as the compound, how does the Potency read?
**A.** inconclusive [inhibitor, single point]

**Q.** With `COC(=O)[C@H](Cc1ccccc1)NC(=O)NCCC1=CCCCC1` as the compound, how does the “activity change, negative = growth inhibition” value read?
**A.** inactive: -21.3%

**Q.** With `N#Cc1ccccc1S(=O)(=O)Nc1ccc2c(c1)C(=O)OC2` as the compound, how does the “activity change, negative = growth inhibition” value read?
**A.** inactive: -8.07%

**Q.** Which Potency does the source give for `Oc1ccc(/C(Cc2ccc3ccccc3n2)=N\Nc2ccccc2)c(O)c1` here?
**A.** active: 23.1 µM

**Q.** Which Potency does the source give for `O=[N+]([O-])c1cc(Cl)cc(/C=N/NC(=S)Nc2ccc(S(=O)(=O)N3CCOCC3)cc2)c1O` here?
**A.** inconclusive [inhibitor, single point]

**Q.** Which Potency does the source give for `COc1ccc(NC(=O)c2ccc(-c3ccc([N+](=O)[O-])cc3)o2)cc1` here?
**A.** inconclusive [inhibitor, single point]

**Q.** Which Potency does the source give for `CN(C)Cc1csc(NC(=O)Nc2ccccc2Oc2ccccc2)n1` here?
**A.** inconclusive [inhibitor, single point]

**Q.** For `CC1CCN(CCc2nc3cc(NC(=O)Nc4ccccc4)ccc3n2C)CC1`, which Potency is on record?
**A.** inconclusive [inhibitor, single point]

**Q.** Which “activity change, negative = growth inhibition” value does the source give for `COc1cc(/C=C/C(=O)OCC(=O)c2ccc3c(c2)NC(=O)CO3)ccc1OC(F)F` here?
**A.** inactive: -16.4%

**Q.** For `COc1ccccc1-c1ccc(/C=C2/C=C(C)OC2=O)o1`, which Potency is on record?
**A.** active: 10.3 µM

**Q.** Which Potency does the source give for `CC(C)(C)c1ccc(C(=O)Nc2ccc(S(N)(=O)=O)cc2)cc1` here?
**A.** inconclusive [inhibitor, single point]

**Q.** For `COc1cc2cnc(-c3ccccc3)cc2cc1OC`, which Potency is on record?
**A.** inconclusive [inhibitor, single point]

**Q.** For `CNC[C@H]1OCc2ccccc2-c2ccccc2C(=O)N([C@@H](C)CO)C[C@H]1C`, which “activity change, negative = growth inhibition” value is on record?
**A.** inactive: -6.16%

**Q.** With `CCC(C)Nc1nc(N)c([N+](=O)[O-])c(NCc2ccccc2)n1` (stereo not drawn) as the compound, how does the Potency read?
**A.** inconclusive [inhibitor, single point]

**Q.** For `COc1ccccc1Nc1ncnc2c1c(C)c(C)n2CCO`, which “activity change, negative = growth inhibition” value is on record?
**A.** inactive: -26%

**Q.** With `FC(F)(F)c1ccccc1-c1cncnc1NCc1ccccc1` as the compound, how does the “activity change, negative = growth inhibition” value read?
**A.** inactive: -13.1%

**Q.** For `CCN1CCN(c2ccc([N+](=O)[O-])c(Sc3nc4ccccc4[nH]3)c2)CC1`, which Potency is on record?
**A.** inconclusive [inhibitor, partial curve]

**Q.** With `CSc1ccccc1C(=O)NCCOc1cccc(C)c1` as the compound, how does the “activity change, negative = growth inhibition” value read?
**A.** inactive: -10.5%

**Q.** Which Potency does the source give for `O=c1c2cc(Br)ccc2nc(-c2ccc(Cl)cc2)n1O` here?
**A.** inconclusive [inhibitor, single point]
